{"source": "PubChem BioAssay AID1508621", "about": "(National Center for Advancing Translational Sciences (NCATS), 2021)", "note": "Inconclusive means that the source gave no clear call. Such entries were picked first, then a sample of the others. Potencies beside an inconclusive call are fits to weak or partial responses and may not hold up. The source made the active and inactive calls. Calls come from the whole dose curve; as a rule, active = well fitted inhibition curve with a large enough effect; inconclusive = small, poorly fitted or top-dose-only effect; inactive = no such curve, though single readings can be large or run the other way. Potency is the fitted concentration of half-maximal effect; tags give direction and shape of the fitted curve.", "data": [{"assay": "Confirmatory qHTS for Identification of Small Molecule Inhibitors of Huntingtin Promoter Activity; note: nearly all actives have a fitted effect of over 65% in size", "conditions": "HEK293 HTT promoter firefly luciferase reporter, 24 h; series mostly up to 57.5 µM", "outline": "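Activity normalized between vehicle control (0%) and zero RLU (-100%) from firefly luminescence (Dual-Glo). Compounds, up to 57.5 uM final, incubated 24 h at 37C on HEK293 reporter cells plated 24 h earlier.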", "values": [{"smiles": "COc1ccc(C(=O)Nc2nc(-c3nnn(-c4ccc(F)cc4F)c3C)ns2)cc1", "Potency": "inconclusive: 15.1 µM [inhibitor, partial curve]"}, {"smiles": "CCC(=O)C1=C(c2cccc([N+](=O)[O-])c2)N(C(=O)CC)n2c(nnc2C2CCCCC2)S1", "Potency": "inconclusive: 23.9 µM [inhibitor, partial curve]"}, {"smiles": "COc1ccc(C(=O)N2CCC(c3nc4ccccc4s3)CC2)cc1Cl", "Potency": "inconclusive: 16.9 µM [inhibitor, partial curve]"}, {"smiles": "COc1ccccc1NC(=O)CSc1nnc(NC(=O)Nc2ccc(C)cc2)s1", "Potency": "inconclusive: 37.9 µM [inhibitor, single point]"}, {"smiles": "COc1cccc(CNC(=O)c2cc3c(-c4ccccc4F)nn(C)c3s2)c1", "Potency": "inconclusive: 21.3 µM [inhibitor, partial curve]"}, {"smiles": "Cc1ccc(C)c(N2CCN(S(=O)(=O)c3cc(C(=O)Nc4ccccc4C(F)(F)F)ccc3F)CC2)c1", "Potency": "inconclusive: 12 µM [inhibitor, partial curve]"}, {"smiles": "CCOc1ccc(CCNC(=O)c2cccc(-n3c(C)nc4cccnc43)c2)cc1", "Potency": "inconclusive: 33.8 µM [inhibitor, single point]"}, {"smiles": "O=C(C=Cc1ccc(CN(CCO)CCc2c[nH]c3ccccc23)cc1)NO", "Potency": "inactive"}, {"smiles": "CC1CCCCN1S(=O)(=O)c1ccc2c(c1)oc(=O)n2CC(=O)Nc1ccc(Cl)cc1", "note": "(stereo not given)", "Potency": "inconclusive: 21.3 µM [inhibitor, partial curve]"}, {"smiles": "CC(=O)N1CCc2c(sc(NC(=O)CSc3ccccc3)c2-c2nc3ccccc3s2)C1", "Potency": "active: 26.9 µM"}]}]}
